{"source": "paper PMC9911399", "about": "“Two distinct binding modes provide the RNA-binding protein RbFox with extraordinary sequence specificity”", "binders": {"B1": {"name": "UGGUUAU (DNA:RNA)", "RNA": "GGGAGACCGGAAUUCAGAUUGUCCUGGUUAUUUAAAUCCCGUCGUAGCCACCA", "DNA 1": "CAATCTGAATTCCGGTCTCCC", "DNA 2": "TGGTGGCTACGACGGGATT"}, "B2": {"name": "AAAAACA (DNA:RNA)", "RNA": "GGGAGACCGGAAUUCAGAUUGUCCAAAAACAUUAAAUCCCGUCGUAGCCACCA", "DNA 1": "CAATCTGAATTCCGGTCTCCC", "DNA 2": "TGGTGGCTACGACGGGATT"}, "B3": {"name": "CUCGGAC (DNA:RNA)", "RNA": "B1 RNA with U25C, G26U, G27C, U28G, U29G, U31C", "DNA 1": "CAATCTGAATTCCGGTCTCCC", "DNA 2": "TGGTGGCTACGACGGGATT"}, "B4": {"name": "CUGAACA (DNA:RNA)", "RNA": "B2 RNA with A25C, A26U, A27G", "DNA 1": "CAATCTGAATTCCGGTCTCCC", "DNA 2": "TGGTGGCTACGACGGGATT"}, "B5": {"name": "CGUCCAC (DNA:RNA)", "RNA": "B1 RNA with U25C, G27U, U28C, U29C, U31C", "DNA 1": "CAATCTGAATTCCGGTCTCCC", "DNA 2": "TGGTGGCTACGACGGGATT"}, "B6": {"name": "GGGAGAA (DNA:RNA)", "RNA": "B1 RNA with U25G, U28A, U29G, U31A", "DNA 1": "CAATCTGAATTCCGGTCTCCC", "DNA 2": "TGGTGGCTACGACGGGATT"}, "B7": {"name": "CAUGAAA (DNA:RNA)", "RNA": "B2 RNA with A25C, A27U, A28G, C30A", "DNA 1": "CAATCTGAATTCCGGTCTCCC", "DNA 2": "TGGTGGCTACGACGGGATT"}, "B8": {"name": "CUACUUG (DNA:RNA)", "RNA": "B2 RNA with A25C, A26U, A28C, A29U, C30U, A31G", "DNA 1": "CAATCTGAATTCCGGTCTCCC", "DNA 2": "TGGTGGCTACGACGGGATT"}, "B9": {"name": "UGAAGGG (DNA:RNA)", "RNA": "B2 RNA with A25U, A26G, A29G, C30G, A31G", "DNA 1": "CAATCTGAATTCCGGTCTCCC", "DNA 2": "TGGTGGCTACGACGGGATT"}, "B10": {"name": "UUUAGUU (DNA:RNA)", "RNA": "B1 RNA with G26U, G27U, U28A, U29G, A30U", "DNA 1": "CAATCTGAATTCCGGTCTCCC", "DNA 2": "TGGTGGCTACGACGGGATT"}, "B11": {"name": "UAAUCGU (DNA:RNA)", "RNA": "B1 RNA with G26A, G27A, U29C, A30G", "DNA 1": "CAATCTGAATTCCGGTCTCCC", "DNA 2": "TGGTGGCTACGACGGGATT"}, "B12": {"name": "CCGGAGG (DNA:RNA)", "RNA": "B2 RNA with A25C, A26C, A27G, A28G, C30G, A31G", "DNA 1": "CAATCTGAATTCCGGTCTCCC", "DNA 2": "TGGTGGCTACGACGGGATT"}, "B13": {"name": "AAUCCCC (DNA:RNA)", "RNA": "B2 RNA with A27U, A28C, A29C, A31C", "DNA 1": "CAATCTGAATTCCGGTCTCCC", "DNA 2": "TGGTGGCTACGACGGGATT"}, "B14": {"name": "UGCAAGG (DNA:RNA)", "RNA": "B2 RNA with A25U, A26G, A27C, C30G, A31G", "DNA 1": "CAATCTGAATTCCGGTCTCCC", "DNA 2": "TGGTGGCTACGACGGGATT"}, "B15": {"name": "GCGCAUA (DNA:RNA)", "RNA": "B2 RNA with A25G, A26C, A27G, A28C, C30U", "DNA 1": "CAATCTGAATTCCGGTCTCCC", "DNA 2": "TGGTGGCTACGACGGGATT"}, "B16": {"name": "GCGGGCA (DNA:RNA)", "RNA": "B2 RNA with A25G, A26C, A27G, A28G, A29G", "DNA 1": "CAATCTGAATTCCGGTCTCCC", "DNA 2": "TGGTGGCTACGACGGGATT"}, "B17": {"name": "UGAUUCC (DNA:RNA)", "RNA": "B1 RNA with G27A, A30C, U31C", "DNA 1": "CAATCTGAATTCCGGTCTCCC", "DNA 2": "TGGTGGCTACGACGGGATT"}, "B18": {"name": "AGUGUCG (DNA:RNA)", "RNA": "B2 RNA with A26G, A27U, A28G, A29U, A31G", "DNA 1": "CAATCTGAATTCCGGTCTCCC", "DNA 2": "TGGTGGCTACGACGGGATT"}, "B19": {"name": "AGUAGUU (DNA:RNA)", "RNA": "B2 RNA with A26G, A27U, A29G, C30U, A31U", "DNA 1": "CAATCTGAATTCCGGTCTCCC", "DNA 2": "TGGTGGCTACGACGGGATT"}, "B20": {"name": "CAUGAGU (DNA:RNA)", "RNA": "B2 RNA with A25C, A27U, A28G, C30G, A31U", "DNA 1": "CAATCTGAATTCCGGTCTCCC", "DNA 2": "TGGTGGCTACGACGGGATT"}}, "note": "Changes are numbered by the printed parent chain; changes in the protein carry UniProt numbers. The list shows a part of the results."}
{"target": "T1, RBFOX1 RRM (Homo sapiens, UniProt Q9NWB1 109-208)", "T1 sequence": "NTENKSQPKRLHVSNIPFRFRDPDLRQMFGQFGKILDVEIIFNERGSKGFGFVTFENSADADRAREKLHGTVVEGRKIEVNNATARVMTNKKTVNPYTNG", "assay": "EMSA; HiTS-Eq, 1 nM pool, 10 min; buffer printed only for the single-RNA assays: 10 mM Tris pH 7.5, 150 mM NaCl, 3.4 mM EDTA, 0.001% NP-40, 30 C", "settings": "tags: His6 N-terminal (pET28a); label: 5' 32P", "procedure,_shortened": "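A pool of RNA with 7 randomized nucleotides, 5′-radiolabelled and with DNA-annealed flanks, was equilibrated at 1 nM for 10 min in 50 µL with purified RbFox RRM, wild type or mutant, across increasing protein concentrations. Free RNA was separated by 8% native PAGE, excised, reverse-transcribed, barcoded by PCR and sequenced. Relative association constants were obtained from read-count changes of each RNA species versus the control reaction and normalised to the cognate motif.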"}
{"binder": "B1", "binding signal": "0.0132 KA relative to UGCAUGU"}
{"binder": "B2", "binding signal": "0.000576 KA relative to UGCAUGU"}
{"binder": "B3", "binding signal": "0.00769 KA relative to UGCAUGU"}
{"binder": "B4", "binding signal": "0.00455 KA relative to UGCAUGU"}
{"binder": "B5", "binding signal": "0.00113 KA relative to UGCAUGU"}
{"binder": "B6", "binding signal": "0.0327 KA relative to UGCAUGU"}
{"binder": "B7", "binding signal": "0.00183 KA relative to UGCAUGU"}
{"binder": "B8", "binding signal": "0.0153 KA relative to UGCAUGU"}
{"binder": "B9", "binding signal": "0.0101 KA relative to UGCAUGU"}
{"binder": "B10", "binding signal": "0.0114 KA relative to UGCAUGU"}
{"binder": "B11", "binding signal": "0.0092 KA relative to UGCAUGU"}
{"binder": "B12", "binding signal": "0.0151 KA relative to UGCAUGU"}
{"binder": "B13", "binding signal": "0.00148 KA relative to UGCAUGU"}
{"binder": "B14", "binding signal": "0.013 KA relative to UGCAUGU"}
{"binder": "B15", "binding signal": "0.0107 KA relative to UGCAUGU"}
{"binder": "B16", "binding signal": "0.0135 KA relative to UGCAUGU"}
{"binder": "B17", "binding signal": "0.0111 KA relative to UGCAUGU"}
{"binder": "B18", "binding signal": "0.0143 KA relative to UGCAUGU"}
{"binder": "B19", "binding signal": "0.00781 KA relative to UGCAUGU"}
{"binder": "B20", "binding signal": "0.0105 KA relative to UGCAUGU"}
